These results are taken from ChEMBL document CHEMBL4888484, “Replenishing the malaria drug discovery pipeline: Screening and hit evaluation of the MMV Hit Generation Library 1 (HGL1) against asexual blood stage Plasmodium falciparum ,using a nano luciferase reporter read-out” (2022).

As usually defined, the % Inhibition is the relative decrease from the control value, in per cent.

Screen size: about 150,000 compounds; about 540 (0.36%) showed an effect of 50% or more. This is one part of the list.

The test concerns Plasmodium falciparum. Kind of test: Primary screen in NF54 nanoGlo assay, in single point, at 2uM, 72h; a lower Z score goes with more inhibition. It is filed as functional, Erythrocyte. Conditions: timepoint 72 hour.
With `COc1ccc(COc2ccccc2C(=O)NCc2ccccc2)cc1F`, the “% Inhibition” value was -16% and the Z score came out at 2.18.
Regarding `O=C(CN1CCCc2ccc(F)cc21)N1CCNC1=O`, the “% Inhibition” value is listed as -3% and the Z score is reported as 0.59.
On to `Nc1nnc(CCNC(=O)N2CCN(c3ccc4nccn4n3)CC2)s1`, for which the “% Inhibition” value is -16% and the Z score is listed as 1.89.
For the molecule `Cc1cccnc1[C@H](C)NC(=O)Cn1ccc(=O)cc1`, the “% Inhibition” value is reported as -16% and the Z score is on record as 2.1.
For `CN(CCO)C[C@@]12CN(C(=O)OC(C)(C)C)C[C@]1(C(F)(F)F)C2`, the “% Inhibition” value is given as -2% and the Z score stood at 0.35.
As for `NC(=NCc1cc(F)cc(F)c1)N1CCN(c2ccccc2F)CC1`, the “% Inhibition” value was found to be 2% and the Z score is -0.33.
The like results for `FC(F)Oc1ccc(NCc2ccon2)nc1` were, in that order, -2% and 0.22.
For the molecule `Cc1cccc(Cl)c1S(=O)(=O)N1CC(c2cccnc2)C1`, the “% Inhibition” value is -8% and the Z score is recorded as 1.25.
In the case of `CCNc1ncc(C(=O)N2CC(OCc3ccccc3F)C2)cn1`, the “% Inhibition” value was 0% and the Z score worked out at 0.
On to `Cn1c(Cn2ncccc2=O)nnc1-c1ccc(Cl)cc1`, for which the “% Inhibition” value turned out to be 6% and the Z score is recorded as -0.71.
Take `COc1cc2c(cc1CN1CCCn3nc([C@H](C)O)cc3C1)OCCCO2`: the “% Inhibition” value is given as -15% and the Z score stood at 1.47.
With `CC1=NN(c2nc(-c3ccc(F)cc3)cs2)C(=O)[C@H]1C`, the “% Inhibition” value is recorded as -12% and the Z score turned out to be 2.33.
In the case of `NC(=O)NCC(=O)N1CCC[C@H](C(=O)Cc2ccccc2)C1`, the “% Inhibition” value is given as -6% and the Z score is 0.68.
For the molecule `CCN1CCC(Nc2ccc3[nH]ncc3c2)C(C)C1` (stereo not given), the “% Inhibition” value is recorded as -10% and the Z score worked out at 1.18.
On to `Cc1ncsc1CN(C)Cc1ncc(-c2cccs2)o1`, for which the “% Inhibition” value is -1% and the Z score is recorded as 0.17.
As for `CC1CN(Cc2nc(-c3cccnc3)no2)CC(C)O1` (stereo not given), the “% Inhibition” value was -7% and the Z score worked out at 1.25.
As to `OCC1OC(n2nnc3ccccc32)C(O)C(O)C1O` (stereo not given), the “% Inhibition” value was -7% and the Z score was 1.28.
`CNS(=O)(=O)CC1CCCN(C(=O)NC(C)Cc2ccc(F)cc2C)C1` (stereo not given): the “% Inhibition” value came to 3% and the Z score is listed as -0.34.
Consider `Cc1nn[nH]c1NC(=O)CC1CC2CCC1C2` (stereo not given), for which the “% Inhibition” value was -12% and the Z score came out at 1.17.
For the molecule `Cc1n[nH]c(CN(C2CC2)C2COC2)n1`, the “% Inhibition” value is listed as -6% and the Z score is recorded as 0.69.
Taken in the same sequence, the figures for `CN(C)c1cccc(C(=O)N2CCC3(CC2)CC3(F)F)c1` were 11% and -1.38.
Taken in the same sequence, the figures for `Cc1cc(NC(=O)c2cnc3ccccc3n2)ccc1N1CCCC1=O` were -9% and 1.36.
With `OC(COc1ccc(F)cc1)CN1CCCCC1Cn1cncn1` (stereo not given), the “% Inhibition” value is given as -2% and the Z score amounted to 0.37.
Regarding `CN1CCN(C(=O)[C@@H]2Cc3cc(Cl)ccc3O2)CC1`, the “% Inhibition” value is reported as 3% and the Z score is recorded as -0.42.
Turning to `Cc1ccc(C2=NN(c3nc(C(=O)O)cs3)[C@@](O)(C(F)(F)F)C2)cc1`, the “% Inhibition” value was -6% and the Z score is on record as 0.94.
